Test results published in the supplement of paper PMC9446081.
Hit rate of the full screen: of about 39,000 compounds, about 220 (0.56%) showed activity. The list shows a part of the results.
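Note: static incubation at 37 °C against the wild-type strain, values averaged over two biological replicates.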

The molecules below were run on Escherichia coli K-12 BW25113 (assay: relative growth (OD600 normalised to plate interquartile mean) (fraction); higher = less growth inhibition, active = 0.2 or less). Conditions: 50 µM; LB; incubation time: overnight (16-24 h).
For `CCOC(=O)CC(=O)N1CCSC1COc1ccccc1OC` (centres undefined), the relative growth was inactive: 1.11.
For `CC(C)(C)[S@](=O)N1Cc2cc(C(=O)NCc3ccccc3F)nc(-c3cccc(-c4ccncc4)c3)c2[C@@H]1CCO`, the relative growth was inactive: 1.01.
With `C[C@@H]1CN([C@@H](C)CO)C(=O)Cc2cc(NC(=O)C3CC3)ccc2O[C@@H]1CN(C)S(=O)(=O)c1ccc(F)cc1` the relative growth was inactive: 0.996.
With `CC(=O)Oc1ccc(C(c2ccc(OC(C)=O)cc2)c2ccccn2)cc1` the relative growth was inactive: 1.08.
With `C/C=C1/[C@H](O[C@@H]2O[C@H](CO)[C@@H](O)[C@H](O)[C@H]2O)OC=C(C(=O)OC)[C@H]1CC(=O)OCCc1ccc(O)c(O)c1` the relative growth was inactive: 1.
In the case of `O=C(C[C@@H]1C[C@H]2c3cc(NC(=O)c4ccc5c(c4)OCO5)ccc3O[C@H]2[C@H](CO)O1)NCc1ccc(Oc2ccccc2)cc1`, the relative growth is reported as inactive: 1.06.
In the case of `C[C@@H]1CN([C@@H](C)CO)C(=O)c2cc(NC(=O)CCC(F)(F)F)ccc2O[C@@H](C)CCCCO[C@@H]1CN(C)C(=O)Nc1ccccc1`, the relative growth is reported as inactive: 0.968.
With `C[C@H](CO)N1C[C@H](C)[C@@H](CN(C)S(=O)(=O)c2ccc(F)cc2)OCCCC[C@H](C)Oc2ccc(NC(=O)C3CCCCC3)cc2C1=O` the relative growth was inactive: 1.02.
`Cc1noc(C)c1S(=O)(=O)N(C)C[C@H]1OCCCC[C@H](C)Oc2ccc(NS(=O)(=O)c3cn(C)cn3)cc2C(=O)N([C@H](C)CO)C[C@@H]1C` was tested, and the relative growth was inactive: 0.996.
For `COc1ccc(NC(=O)N(C)C[C@H]2OCCCC[C@@H](C)Oc3ccc(NS(=O)(=O)c4ccc(C)cc4)cc3C(=O)N([C@@H](C)CO)C[C@@H]2C)cc1`, the relative growth was inactive: 0.992.
In the case of `O=C(NC1(c2ccccc2)CC1)c1c(CN2CCC(N3CCCCC3)CC2)c(-c2cccc(C(F)(F)F)c2)nc2cc(Br)ccc12`, the relative growth is reported as inactive: 0.984.
With `C=c1cc(C)ccc1=C1NN=C(N)O1` the relative growth was inactive: 0.991.
For `C[C@H](CO)N1C[C@H](C)[C@H](CN(C)Cc2ccccc2)Oc2c(NC(=O)c3cnccn3)cccc2C1=O`, the relative growth was inactive: 1.
With `C[C@@H]1CN([C@@H](C)CO)C(=O)c2cccc(NC(=O)C3CCCCC3)c2O[C@@H]1CN(C)Cc1ccc(Oc2ccccc2)cc1` the relative growth was inactive: 1.03.
With `COc1ccc(C#Cc2cnc3c(c2)C(=O)N([C@@H](C)CO)C[C@H](C)[C@H](CN(C)C(=O)CC2CC2)O3)cc1` the relative growth was inactive: 1.01.
`CN(C)Cc1cn(CC[C@H]2CC[C@H](NS(=O)(=O)c3ccccc3)[C@@H](CO)O2)nn1` was tested, and the relative growth was inactive: 0.983.
With `COC(=O)[C@@H](NC(=O)c1cc(C)on1)C(C)C` the relative growth was inactive: 0.95.
For `C[C@@H]1CN([C@H](C)CO)C(=O)c2cc(NC(=O)NC3CCCCC3)ccc2O[C@@H](C)CCCCO[C@H]1CN(C)Cc1ccc(C(F)(F)F)cc1`, the relative growth was inactive: 1.01.
In the case of `COc1ccc(NC(=O)Nc2ccc3c(c2)C(=O)N([C@H](C)CO)C[C@H](C)[C@@H](CN(C)Cc2ccc(C(F)(F)F)cc2)O3)cc1`, the relative growth is reported as inactive: 0.91.
For `C#CCN(C)C1CCN(C(C)=O)CC1`, the relative growth was inactive: 0.989.
For `Cc1ccc(Nc2nnc(-c3ccccc3)c3ccccc23)cc1`, the relative growth was inactive: 0.988.
For `C[C@@H]1CCCCO[C@@H](CN(C)C(=O)Nc2ccccc2)[C@@H](C)CN([C@H](C)CO)C(=O)c2cc(NC(=O)Nc3ccc(F)cc3)ccc2O1`, the relative growth was inactive: 0.88.
With `C[C@@H]1CN([C@H](C)CO)C(=O)c2cc(NC(=O)Nc3ccccc3)ccc2O[C@@H](C)CCCCO[C@@H]1CN(C)Cc1ccc(C(F)(F)F)cc1` the relative growth was inactive: 1.
`CCCC(=O)Nc1ccc2c(c1)OC[C@@H](C)N(S(=O)(=O)c1cn(C)cn1)C[C@H](C)[C@H](OC)CN(C)C2=O` was tested, and the relative growth was inactive: 1.02.
For `O=C(C[C@@H]1C=C[C@@H](NC(=O)c2cccnc2)[C@H](CO)O1)NCCN1CCCCC1`, the relative growth was inactive: 1.01.
In the case of `COCC#Cc1ccc2c(c1)O[C@H](CN(C)C(=O)c1ccccc1)[C@H](C)CN([C@@H](C)CO)S2(=O)=O`, the relative growth is reported as inactive: 1.01.
`C[C@@H]1CN([C@H](C)CO)C(=O)c2cc(NC(=O)Nc3cccc4ccccc34)ccc2O[C@H]1CN(C)Cc1ccc(Cl)c(Cl)c1` was tested, and the relative growth was inactive: 1.02.
For `CC(C)NC(=O)N(C)C[C@@H]1Oc2ccc(NC(=O)CCC(F)(F)F)cc2C(=O)N([C@@H](C)CO)C[C@H]1C`, the relative growth was inactive: 0.956.
With `Cc1noc(C)c1S(=O)(=O)Nc1cccc2c1O[C@@H](CN(C)Cc1ccc(Oc3ccccc3)cc1)[C@@H](C)CN([C@@H](C)CO)C2=O` the relative growth was inactive: 0.96.
In the case of `CCCCCN1CC=C[C@]23O[C@@H]4/C=C/CCC(=O)N(C)[C@H](C)[C@@H](c5ccccc5)OC(=O)[C@@H]4[C@H]2C(=O)N(c2ccccc2Cl)[C@@H]3C1=O`, the relative growth is reported as inactive: 0.918.
`C[C@@H]1CN([C@@H](C)CO)C(=O)c2cc(NC(=O)Nc3ccccc3)ccc2O[C@H]1CN(C)S(C)(=O)=O` was tested, and the relative growth was inactive: 1.
`O=C([C@H]1[C@H](CO)[C@H]2Cn3c(cccc3=O)[C@H]2N1CC1CCCC1)N1CCOCC1` was tested, and the relative growth was inactive: 1.03.
`C=CCSC1=N[C@@]2(COCc3ccc(OC)cc3)Oc3ccccc3[C@H]([C@H]2CO[Si](C)(C)C(C)(C)C)N1C(=O)c1ccccc1` was tested, and the relative growth was inactive: 0.991.
For `C[C@H]1CN([C@@H](C)CO)C(=O)Cc2cc(NS(=O)(=O)c3cn(C)cn3)ccc2O[C@H]1CN(C)C`, the relative growth was inactive: 1.01.
For `Cn1cc(S(=O)(=O)N2CCN(Cc3ccccc3)CC2)c(=O)n(C)c1=O`, the relative growth was inactive: 0.996.
With `C[C@H](C(=O)N(C)C[C@@H]1OCc2ccccc2-c2c(n(C)c3ccccc23)C(=O)N([C@H](C)CO)C[C@H]1C)c1ccccc1` the relative growth was inactive: 0.982.
`C[C@@H]1CN([C@@H](C)CO)C(=O)c2cccc(NC(=O)Nc3ccc(C(F)(F)F)cc3)c2O[C@@H]1CN(C)Cc1ccc(Oc2ccccc2)cc1` was tested, and the relative growth was inactive: 1.02.
With `O=C1N[C@@H](CC(=O)N2CCN(CCc3ccncc3)CC2)C(=O)Nc2ccccc21` the relative growth was inactive: 0.988.
`C[C@H]1CN([C@@H](C)CO)C(=O)c2cccc(NS(C)(=O)=O)c2O[C@@H]1CN(C)C(=O)NC1CCCCC1` was tested, and the relative growth was inactive: 0.975.
In the case of `COc1nn(C)cc1-c1n[nH]c(=S)n1C`, the relative growth is reported as inactive: 0.979.
`C[C@@H]1CN([C@H](C)CO)C(=O)c2cc(NC(=O)C3CCCCC3)ccc2O[C@@H](C)CCCCO[C@H]1CN(C)Cc1ccncc1` was tested, and the relative growth was inactive: 1.01.
For `O=C(O)[C@H]1CCCCN1`, the relative growth was inactive: 1.01.
`COc1ccc2c3c(n(c2c1)C)[C@@H](CO)N(Cc1ccccc1)C[C@]13CCN(CC1)C(=O)Nc1cccc(c1)F` was tested, and the relative growth was inactive: 1.01.
`C=CC[C@@H](CC(=O)NCCO)C(=O)N[C@H](COC(=O)[C@H](CC=C)CC(=O)OC(C)(C)C)Cc1c[nH]c2ccccc12` was tested, and the relative growth was inactive: 1.
For `C=c1ccc(S(=O)(=O)N2CCCC2)cc1=C1NN=C2c3ccccc3C(C)=NN21`, the relative growth was inactive: 1.02.
`O=C(C[C@H]1C[C@H]2c3cc(NC(=O)Nc4ccccc4)ccc3O[C@H]2[C@H](CO)O1)NCCN1CCCCC1` was tested, and the relative growth was inactive: 0.994.
With `C[C@@H]1CN([C@H](C)CO)C(=O)c2cc(NC(=O)c3ccncc3)ccc2O[C@@H]1CN(C)Cc1ccncc1` the relative growth was inactive: 1.02.
In the case of `C[C@H]1CN([C@@H](C)CO)C(=O)c2cccc(NS(=O)(=O)c3cccs3)c2O[C@H]1CN(C)Cc1ccncc1`, the relative growth is reported as inactive: 0.978.
In the case of `CO[C@@H]1CN(C)C(=O)c2cc(NC(=O)CC(F)(F)F)ccc2OC[C@H](C)N(S(=O)(=O)c2cn(C)cn2)C[C@@H]1C`, the relative growth is reported as inactive: 0.997.
With `C[C@@H]1CN([C@@H](C)CO)C(=O)Cc2cc(NC(=O)Cn3cnnn3)ccc2O[C@H]1CN(C)S(=O)(=O)c1ccccc1` the relative growth was inactive: 0.993.
With `CO[C@@H]1CN(C)C(=O)c2ccc(NC(=O)CN(C)C)cc2OC[C@@H](C)N(C(=O)C2CCCCC2)C[C@H]1C` the relative growth was inactive: 0.983.
In the case of `C[C@H](CO)N1C[C@H](C)[C@@H](CN(C)S(=O)(=O)c2ccc(-n3cccn3)cc2)OCc2cn(nn2)CCCC1=O`, the relative growth is reported as inactive: 1.05.
`CCNc1ncnc2c1nnn2C` was tested, and the relative growth was inactive: 1.02.
With `C[C@H](CO)N1C[C@H](C)[C@@H](CN(C)Cc2ccc3c(c2)OCO3)Oc2cc(Br)ccc2S1(=O)=O` the relative growth was inactive: 0.929.
With `CC(O)(CC(=O)O)CC(=O)O` the relative growth was inactive: 0.855.
In the case of `NC(=O)c1ncn(C2OC(CO)C(O)C2O)c1N` (centres undefined), the relative growth is reported as inactive: 1.04.
`COc1ccc(NC(=O)N2C[C@@H](O)COC[C@H]3O[C@@H](CC(=O)NC4Cc5ccccc5C4)CC[C@@H]32)cc1` was tested, and the relative growth was inactive: 1.02.
In the case of `C[C@@H]1CCCCO[C@H](CN(C)S(C)(=O)=O)[C@@H](C)CN([C@@H](C)CO)C(=O)c2cc(N(C)C)ccc2O1`, the relative growth is reported as inactive: 0.984.
With `C[C@@H]1CN([C@H](C)CO)S(=O)(=O)c2ccc(C3=CCCCC3)cc2O[C@@H]1CN(C)C(=O)C1CCOCC1` the relative growth was inactive: 1.02.
In the case of `NC(=O)c1ccccc1NC(=O)CCC(=O)O`, the relative growth is reported as inactive: 1.01.
With `C[C@@H]1CCCCO[C@@H](CN(C)S(C)(=O)=O)[C@H](C)CN([C@H](C)CO)C(=O)c2cc(N(C)C)ccc2O1` the relative growth was inactive: 1.
For `C[C@H]1CN([C@@H](C)CO)C(=O)Cc2cc(NC(=O)C3CCCCC3)ccc2O[C@@H]1CN(C)C(=O)Nc1ccc(C(F)(F)F)cc1`, the relative growth was inactive: 0.982.
With `C[C@H]1CN([C@@H](C)CO)C(=O)Cc2cc(NC(=O)Cn3cnnn3)ccc2O[C@@H]1CN(C)C(=O)Nc1ccc(F)cc1` the relative growth was inactive: 1.03.
For `CO[C@H]1CN(C)C(=O)c2cc(NS(=O)(=O)CC(F)(F)F)ccc2OC[C@@H](C)N(Cc2nccs2)C[C@@H]1C`, the relative growth was inactive: 0.962.
